Results published in patent US20230134580A1 (SHANGHAI HENLIUS BIOTECH, published 2023).

Biological target: T1, human TIGIT (T cell immunoreceptor with Ig and ITIM domains), expressed on cells (human, UniProt Q495A1 22-244)
T1 sequence: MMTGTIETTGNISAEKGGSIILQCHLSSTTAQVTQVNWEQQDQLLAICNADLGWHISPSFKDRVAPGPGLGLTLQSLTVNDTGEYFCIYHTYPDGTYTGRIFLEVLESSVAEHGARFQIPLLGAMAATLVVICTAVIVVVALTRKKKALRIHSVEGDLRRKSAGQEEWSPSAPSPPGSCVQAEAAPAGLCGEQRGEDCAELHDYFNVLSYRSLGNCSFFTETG
Assay: cell-based or functional assay

B1: 2A3-LT-Fc (hotspot corrected 2A3, M to L and D to T), wild type Fc (Fc fusion)
chain: QVQLVESGGGVVQPGRSLRLSCAASGGSFSSYPMGWFRQAPGKERESVAAISSDLRFTYYADSVKGRFTISRDNSKNTLYLQMNSLRAEDTAVYYCAARTSGVGYYSRAQWYDYWGQGTLVTVSS[letters of human IgG1 Fc not shown]
EC50 (read off the curve), NFAT luciferase reporter, TIGIT blockade: ~1 nM
